According to the supplement of paper PMC4604168 (melanoma cell lines):
The other results are listed elsewhere or left out. Single values are uncertain, as repeats are few or missing.

What was measured:
Assay in all cases: cell count relative to DMSO control; melanoma cells; higher = more viable cells
Details in all cases: library dose: standard library concentration; 72 h
[1] = test system: SkMel28
[2] = test system: SkMel2
[3] = test system: SkMel30
[4] = test system: SkMel5
[5] = test system: UACC257
[6] = test system: UACC62
[7] = test system: WM115
[8] = test system: WM1716
[9] = test system: WM1745
[10] = test system: WM3526
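Also: cells treated in 1,536-well plates, then fixed and DAPI-stained, with nuclei counted from automated high-throughput microscope images.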

Structure (SMILES)	cell count [1] [%]	cell count [2] [%]	cell count [3] [%]	cell count [4] [%]	cell count [5] [%]	cell count [6] [%]	cell count [7] [%]	cell count [8] [%]	cell count [9] [%]	cell count [10] [%]
Nc1cccc2c1CN(C1CCC(=O)NC1=O)C2=O (stereo not given) [lenalidomide] + CCc1ccc(CCOc2ccc(CC3SC(=O)NC3=O)cc2)nc1 [pioglitazone] (first compound 5 µM, partner dose 10 µM)	82.7	86.1	74.1	98.8	112	76.8	77.3	82.8	73.2	87.4
Nc1cccc2c1CN(C1CCC(=O)NC1=O)C2=O (stereo not given) [lenalidomide] + Oc1cc(-c2nc(-c3ccccc3)[nH]c2-c2ccncc2)ccc1Cl [L779450] (first compound 5 µM, partner dose 1 µM)	54	23.5	110	73	79.5	65.4	42.3	72.2	53.3	48.8
O=C(CCCCCCC(=O)Nc1ccccc1)NO [vorinostat] + NCC(=O)Nc1ccc(-n2nc(C(F)(F)F)cc2-c2ccc3c(ccc4ccccc43)c2)cc1 [OSU03012] (first compound 0.4 µM, partner dose 5 µM)	23.4	24.1	16.1	42.3	60.9	47.3	57.6	75.7	81.5	37
COCC[n+]1c2c(n(Cc3cnccn3)c1C)C(=O)c1ccccc1C2=O + Cn1cc(/C=C2\C(=O)Nc3cccnc32)c2ccccc21 [GW441756] (first compound 0.002 µM, partner dose 2 µM)	71.1	60.7	61.1	44.9	24.9	90.5	101	86	77	69.5
C#Cc1cccc(Nc2ncnc3cc(OCCOC)c(OCCOC)cc23)c1 [erlotinib] + NC(=O)Nc1cc(-c2cccc(F)c2)sc1C(=O)N[C@H]1CCCNC1 [AZD7762] (first compound 4 µM, partner dose 0.1 µM)	27.1	80	76.1	68.2	121	56.1	63.7	75.5	47.6	50
C#Cc1cccc(Nc2ncnc3cc(OCCOC)c(OCCOC)cc23)c1 [erlotinib] + COc1ccc(COc2ccc(Cc3cnc(N)nc3N)cc2OC)cc1 [GW2580] (first compound 4 µM, partner dose 5 µM)	74.5	89.6	69.1	56.6	98	70.9	89.5	92.5	57.9	70.2
Nc1cccc2c1CN(C1CCC(=O)NC1=O)C2=O (stereo not given) [lenalidomide] + NC(=O)Nc1cc(-c2cccc(F)c2)sc1C(=O)N[C@H]1CCCNC1 [AZD7762] (first compound 5 µM, partner dose 0.1 µM)	39.9	80.6	89.4	73	96.5	95.1	57.6	73.2	45.2	67.6
Clc1ccc(Nc2nnc(Cc3ccncc3)c3ccccc23)cc1 [vatalanib] + C#Cc1cccc(Nc2ncnc3cc(OCCOC)c(OCCOC)cc23)c1 [erlotinib] (first compound 10 µM, partner dose 4 µM)	63.1	68.1	74.4	46.3	75.9	49.1	106	82.9	43.7	64.9
C#Cc1cccc(Nc2ncnc3cc(OCCOC)c(OCCOC)cc23)c1 [erlotinib] + C=CCn1c(=O)c2cnc(Nc3ccc(N4CCN(C)CC4)cc3)nc2n1-c1cccc(C(C)(C)O)n1 [MK1775] (first compound 4 µM, partner dose 0.1 µM)	41.9	75.3	63.1	39.7	85.2	50.9	51.3	82	32.2	72.8
O=C(CCCCCCC(=O)Nc1ccccc1)NO [vorinostat] + Oc1cc(-c2nc(-c3ccccc3)[nH]c2-c2ccncc2)ccc1Cl [L779450] (first compound 0.4 µM, partner dose 1 µM)	30.2	14.8	84.4	72.6	83.2	66.9	67.8	83.1	63	58.6
O=C(CCCCCCC(=O)Nc1ccccc1)NO [vorinostat] + O=C(Nc1ccccc1)c1cc([N+](=O)[O-])ccc1Cl [GW9662] (first compound 0.4 µM, partner dose 10 µM)	32.3	82.3	91.5	66.1	69.3	58.7	70.9	91.3	82.2	84.3
O=C(CCCCCCC(=O)Nc1ccccc1)NO [vorinostat] + NC(=O)Nc1cc(-c2cccc(F)c2)sc1C(=O)N[C@H]1CCCNC1 [AZD7762] (first compound 0.4 µM, partner dose 0.1 µM)	23.7	79.4	63.3	55.1	83.9	53.2	71.9	64.8	66.3	44.1
O=C(CCCCCCC(=O)Nc1ccccc1)NO [vorinostat] + COc1cc(N2CCC(N3CCN(C)CC3)CC2)ccc1Nc1ncc(Cl)c(Nc2ccccc2S(=O)(=O)C(C)C)n1 [NVP-TAE684] (first compound 0.4 µM, partner dose 0.4 µM)	47.7	52.4	101	64.5	57.8	74.3	80.8	87.2	50.6	50.2
COCC[n+]1c2c(n(Cc3cnccn3)c1C)C(=O)c1ccccc1C2=O + COc1ccc2c(c1)CCC1C2CCC2(C)C(NCCCCCCN3C(=O)C=CC3=O)CCC12 [U73122] (first compound 0.002 µM, partner dose 2 µM)	87.7	110	78.2	81	20.4	72.1	83.4	69.6	111	55.9
C#Cc1cccc(Nc2ncnc3cc(OCCOC)c(OCCOC)cc23)c1 [erlotinib] + COc1cc(Nc2ncc(F)c(Nc3ccc4c(n3)NC(=O)C(C)(C)O4)n2)cc(OC)c1OC [Tamatinib] (first compound 4 µM, partner dose 2 µM)	67	82.3	94.2	61.1	96.4	73.4	84.3	98.6	45.1	83.4
C#Cc1cccc(Nc2ncnc3cc(OCCOC)c(OCCOC)cc23)c1 [erlotinib] + Cc1cc(N2CCOCC2)cc2[nH]c(-c3c(NC[C@@H](O)c4cccc(Cl)c4)cc[nH]c3=O)nc12 [BMS536924] (first compound 4 µM, partner dose 1 µM)	57.2	58.3	55.8	46.2	79.1	71.9	75.4	103	27.6	52.4
O=C(CCCCCCC(=O)Nc1ccccc1)NO [vorinostat] + Cc1cc([N+](=O)[O-])ccc1NS(=O)(=O)c1cc(Cl)ccc1Cl [FH535] (first compound 0.4 µM, partner dose 5 µM)	42.8	63	83.9	70.8	56.8	71.9	83.6	76	110	77.9
Cn1c(Nc2ccc(C(F)(F)F)cc2)nc2cc(Oc3ccnc(-c4ncc(C(F)(F)F)[nH]4)c3)ccc21 + O=c1cc(-c2cccc3c2Sc2ccccc2S3)oc(N2CCOCC2)c1 [KU55933] (first compound 0.4 µM, partner dose 5 µM)	32.6	51	77.1	32.3	81.4	38.8	24.9	57.1	54.8	37.7
COCC[n+]1c2c(n(Cc3cnccn3)c1C)C(=O)c1ccccc1C2=O + O=S(=O)(c1ccccc1)N(CC(F)(F)F)c1ccc(C(O)(C(F)(F)F)C(F)(F)F)cc1 [T0901317] (first compound 0.002 µM, partner dose 7 µM)	46.7	34.4	75.4	42.3	27.8	63	65.7	50.3	75	69.7
COCC[n+]1c2c(n(Cc3cnccn3)c1C)C(=O)c1ccccc1C2=O + Cc1cc([N+](=O)[O-])ccc1NS(=O)(=O)c1cc(Cl)ccc1Cl [FH535] (first compound 0.002 µM, partner dose 5 µM)	33.2	33	58.2	45.5	24.2	76.9	81.7	77.4	78.4	61.9
C#Cc1cccc(Nc2ncnc3cc(OCCOC)c(OCCOC)cc23)c1 [erlotinib] + CCCCCCCCCCCC1=C(O)C(=O)C=C(O)C1=O [Embelin] (first compound 4 µM, partner dose 6 µM)	55.7	83.8	70.5	57.9	73.1	84	76	70.1	39.3	54
C#Cc1cccc(Nc2ncnc3cc(OCCOC)c(OCCOC)cc23)c1 [erlotinib] + O=C(O)C(=O)Nc1sc2c(c1C(=O)O)CCNC2 [TCS401] (first compound 4 µM, partner dose 8.33333 µM)	67	89.3	99	63.6	89.9	89	80.5	81	70	64.8
COCC[n+]1c2c(n(Cc3cnccn3)c1C)C(=O)c1ccccc1C2=O + COc1cc(N2CCC(N3CCN(C)CC3)CC2)ccc1Nc1ncc(Cl)c(Nc2ccccc2S(=O)(=O)C(C)C)n1 [NVP-TAE684] (first compound 0.002 µM, partner dose 0.4 µM)	55.8	21.7	43.4	33.6	19.5	77.7	44	66.3	49.4	22.3
C#Cc1cccc(Nc2ncnc3cc(OCCOC)c(OCCOC)cc23)c1 [erlotinib] + COc1cc(N2CCC(N3CCN(C)CC3)CC2)ccc1Nc1ncc(Cl)c(Nc2ccccc2S(=O)(=O)C(C)C)n1 [NVP-TAE684] (first compound 4 µM, partner dose 0.4 µM)	45.9	44.7	76.2	53	87.8	68.3	63.8	78.1	33	42.8
